In the BET-seq Pho4 binding data (Le et al. 2018):
The list shows a part of the results. The energies were worked out here from pooled read counts, against the library average; single values are noisy.

Target: T1, Pho4 (S. cerevisiae) (UniProt P07270)
T1 sequence: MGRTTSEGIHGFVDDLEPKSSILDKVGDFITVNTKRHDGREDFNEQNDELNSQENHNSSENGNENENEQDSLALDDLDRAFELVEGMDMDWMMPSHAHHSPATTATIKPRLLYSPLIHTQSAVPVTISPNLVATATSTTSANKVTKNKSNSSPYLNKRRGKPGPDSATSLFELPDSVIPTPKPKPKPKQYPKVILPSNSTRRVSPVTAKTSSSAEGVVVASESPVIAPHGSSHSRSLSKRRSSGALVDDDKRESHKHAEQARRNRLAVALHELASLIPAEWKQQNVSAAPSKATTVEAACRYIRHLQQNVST
Test: relative binding free energy (BET-seq); higher = weaker binding
Settings: reference: library average

How did the “relative binding free energy” value turn out when AGAATCACGTGGATGT was run?
The value was 0.12 kcal/mol.

With ATGGGCACGTGGTGCT as the sequence, how does the “relative binding free energy” value read?
Its value is -0.23 kcal/mol.

For TGCAACACGTGGTGGG, which “relative binding free energy” value is on record?
Its value is -0.1 kcal/mol.

With GGGTACACGTGATCTT as the sequence, how does the “relative binding free energy” value read?
The value was 0.22 kcal/mol.

For ATCGGCACGTGAGTTA, which “relative binding free energy” value is on record?
The value was 0.15 kcal/mol.

GTTGTCACGTGTGGGC was tested. Which “relative binding free energy” value did it give?
Its value is 0.2 kcal/mol.

TTAGCCACGTGTGGTT was tested. Which “relative binding free energy” value did it give?
The value was 0.04 kcal/mol.

Which “relative binding free energy” value does the source give for TCGTGCACGTGATGGA here?
Its value is 0.15 kcal/mol.

CGAGTCACGTGCGTGG was tested. Which “relative binding free energy” value did it give?
Its value is -0.03 kcal/mol.

How did the “relative binding free energy” value turn out when AGGGTCACGTGGCGTA was run?
Its value is 0.05 kcal/mol.

For AGGGGCACGTGCGTGC, which “relative binding free energy” value is on record?
The value was -0.2 kcal/mol.

Which “relative binding free energy” value does the source give for GGAAACACGTGGAGTT here?
The value was 0 kcal/mol.

GGTAACACGTGTTGTA was tested. Which “relative binding free energy” value did it give?
Its value is 0.12 kcal/mol.

Which “relative binding free energy” value does the source give for TCGTCCACGTGTTTTT here?
Its value is 0.28 kcal/mol.

For CGGGTCACGTGGGGAG, which “relative binding free energy” value is on record?
Its value is 0 kcal/mol.

How did the “relative binding free energy” value turn out when GTGGGCACGTGGGTGG was run?
Its value is -0.1 kcal/mol.

How did the “relative binding free energy” value turn out when TGGGACACGTGGGAGC was run?
The value was -0.01 kcal/mol.

TAGCGCACGTGGTTTT was tested. Which “relative binding free energy” value did it give?
Its value is 0.08 kcal/mol.

How did the “relative binding free energy” value turn out when AGGTACACGTGGGAAG was run?
Its value is -0.12 kcal/mol.

GAGAACACGTGGTTTG was tested. Which “relative binding free energy” value did it give?
Its value is 0.13 kcal/mol.

With CTCGTCACGTGTAGTT as the sequence, how does the “relative binding free energy” value read?
Its value is 0.02 kcal/mol.

How did the “relative binding free energy” value turn out when CGAGGCACGTGTGTGT was run?
Its value is -0.13 kcal/mol.

For ATGATCACGTGATGAT, which “relative binding free energy” value is on record?
The value was 0.25 kcal/mol.

Which “relative binding free energy” value does the source give for GGGTCCACGTGGGAGT here?
The value was -0.21 kcal/mol.

With TGTGGCACGTGAAGCT as the sequence, how does the “relative binding free energy” value read?
Its value is 0.11 kcal/mol.

How did the “relative binding free energy” value turn out when TGTTTCACGTGAATGT was run?
The value was 0.39 kcal/mol.

AGATACACGTGCGTTG was tested. Which “relative binding free energy” value did it give?
The value was -0.03 kcal/mol.

For TGGAGCACGTGGGACT, which “relative binding free energy” value is on record?
The value was -0.14 kcal/mol.

TGATGCACGTGTATCT was tested. Which “relative binding free energy” value did it give?
The value was 0.09 kcal/mol.

With TCAGCCACGTGGGTTG as the sequence, how does the “relative binding free energy” value read?
The value was -0.1 kcal/mol.

CATTACACGTGGTTAG was tested. Which “relative binding free energy” value did it give?
The value was 0.14 kcal/mol.

How did the “relative binding free energy” value turn out when TATGGCACGTGCCGGG was run?
The value was -0.24 kcal/mol.

For TAATTCACGTGTAGTG, which “relative binding free energy” value is on record?
Its value is 0.2 kcal/mol.

Which “relative binding free energy” value does the source give for TGAGCCACGTGTGGTT here?
The value was -0.06 kcal/mol.

AGTGTCACGTGGCAAG was tested. Which “relative binding free energy” value did it give?
Its value is 0.01 kcal/mol.

Which “relative binding free energy” value does the source give for TACGTCACGTGTGGCG here?
Its value is 0.09 kcal/mol.

TAATTCACGTGTGCAG was tested. Which “relative binding free energy” value did it give?
The value was 0.4 kcal/mol.

How did the “relative binding free energy” value turn out when GATGGCACGTGGGCAG was run?
The value was -0.19 kcal/mol.

Which “relative binding free energy” value does the source give for AGTGTCACGTGGTCGG here?
The value was 0.03 kcal/mol.

Which “relative binding free energy” value does the source give for TGTATCACGTGTGAAT here?
Its value is 0.17 kcal/mol.

With ATGTACACGTGGGATG as the sequence, how does the “relative binding free energy” value read?
Its value is -0.06 kcal/mol.

Which “relative binding free energy” value does the source give for TATAGCACGTGGGGCT here?
Its value is -0.13 kcal/mol.

Which “relative binding free energy” value does the source give for AGGTCCACGTGAGGTT here?
Its value is 0.3 kcal/mol.

For ATTAACACGTGTAGGT, which “relative binding free energy” value is on record?
The value was -0.02 kcal/mol.

How did the “relative binding free energy” value turn out when GAAATCACGTGAGTTG was run?
The value was 0.34 kcal/mol.

With GGTGCCACGTGGGTCG as the sequence, how does the “relative binding free energy” value read?
Its value is -0.1 kcal/mol.

CTGTACACGTGCTGGT was tested. Which “relative binding free energy” value did it give?
The value was 0.07 kcal/mol.

For TGATCCACGTGATGGG, which “relative binding free energy” value is on record?
The value was 0.08 kcal/mol.

TGTTACACGTGAGGCT was tested. Which “relative binding free energy” value did it give?
The value was 0.35 kcal/mol.

For TCTTTCACGTGGTCTT, which “relative binding free energy” value is on record?
The value was 0.18 kcal/mol.

How did the “relative binding free energy” value turn out when AGCGCCACGTGTGAGG was run?
The value was -0.04 kcal/mol.

For TGATGCACGTGTGATG, which “relative binding free energy” value is on record?
Its value is 0.09 kcal/mol.

For TTTTTCACGTGTCGCT, which “relative binding free energy” value is on record?
Its value is 0.31 kcal/mol.

Which “relative binding free energy” value does the source give for TGGTGCACGTGTTCTC here?
The value was 0.02 kcal/mol.

How did the “relative binding free energy” value turn out when GCGGGCACGTGTTATT was run?
Its value is -0.02 kcal/mol.

With TGCAGCACGTGGTGTG as the sequence, how does the “relative binding free energy” value read?
The value was -0.07 kcal/mol.

How did the “relative binding free energy” value turn out when TATGACACGTGCGTTG was run?
The value was -0.06 kcal/mol.

How did the “relative binding free energy” value turn out when TCGTGCACGTGGTCGT was run?
The value was -0.18 kcal/mol.

How did the “relative binding free energy” value turn out when GGTATCACGTGCTCTG was run?
The value was 0.3 kcal/mol.

For GAGTCCACGTGCGGGT, which “relative binding free energy” value is on record?
The value was 0.05 kcal/mol.

CGTGGCACGTGATGTA was tested. Which “relative binding free energy” value did it give?
Its value is -0.06 kcal/mol.

For TTAGCCACGTGGTTTG, which “relative binding free energy” value is on record?
The value was -0.18 kcal/mol.

ACGGGCACGTGTGTGT was tested. Which “relative binding free energy” value did it give?
Its value is -0.1 kcal/mol.

Which “relative binding free energy” value does the source give for TATCGCACGTGGGTTG here?
Its value is -0.21 kcal/mol.

For GTAAGCACGTGTGGAG, which “relative binding free energy” value is on record?
The value was 0.04 kcal/mol.

How did the “relative binding free energy” value turn out when TATGGCACGTGTATCT was run?
The value was 0 kcal/mol.

For GGTCGCACGTGGCGCG, which “relative binding free energy” value is on record?
The value was -0.04 kcal/mol.

How did the “relative binding free energy” value turn out when AGGTGCACGTGGCGTT was run?
The value was -0.11 kcal/mol.

With TAGTTCACGTGTTGAC as the sequence, how does the “relative binding free energy” value read?
The value was 0.23 kcal/mol.

GAAAGCACGTGGTTAG was tested. Which “relative binding free energy” value did it give?
The value was -0.14 kcal/mol.

How did the “relative binding free energy” value turn out when TCTAGCACGTGTGGTA was run?
Its value is -0.11 kcal/mol.

Which “relative binding free energy” value does the source give for GGACTCACGTGGGGGA here?
Its value is 0.01 kcal/mol.

For AATTGCACGTGGGATG, which “relative binding free energy” value is on record?
The value was -0.01 kcal/mol.

For GGTTGCACGTGAGTGA, which “relative binding free energy” value is on record?
The value was 0.22 kcal/mol.

How did the “relative binding free energy” value turn out when GTGCGCACGTGGTAGT was run?
The value was -0.13 kcal/mol.

TTGCGCACGTGCGGTG was tested. Which “relative binding free energy” value did it give?
The value was -0.19 kcal/mol.

Which “relative binding free energy” value does the source give for TTAGTCACGTGGAGTG here?
Its value is 0.03 kcal/mol.

For GTGGGCACGTGAGGAC, which “relative binding free energy” value is on record?
Its value is 0.1 kcal/mol.

ATGCTCACGTGGTGGA was tested. Which “relative binding free energy” value did it give?
The value was 0.31 kcal/mol.

ATTTTCACGTGGATCA was tested. Which “relative binding free energy” value did it give?
Its value is 0.26 kcal/mol.

For CTTGTCACGTGTAATA, which “relative binding free energy” value is on record?
Its value is 0.15 kcal/mol.

With CCGGGCACGTGGTGTA as the sequence, how does the “relative binding free energy” value read?
Its value is -0.21 kcal/mol.

How did the “relative binding free energy” value turn out when CGGTTCACGTGGGGAC was run?
Its value is 0.2 kcal/mol.

With GTCGACACGTGTGGTA as the sequence, how does the “relative binding free energy” value read?
Its value is 0.13 kcal/mol.

How did the “relative binding free energy” value turn out when TATCGCACGTGGAGGG was run?
Its value is -0.09 kcal/mol.

TTTCGCACGTGATGCT was tested. Which “relative binding free energy” value did it give?
The value was 0.15 kcal/mol.

GTGTACACGTGGAGAT was tested. Which “relative binding free energy” value did it give?
The value was 0.08 kcal/mol.

GATGTCACGTGCGGTA was tested. Which “relative binding free energy” value did it give?
Its value is 0.08 kcal/mol.

Which “relative binding free energy” value does the source give for TTTTGCACGTGAAGGG here?
Its value is 0.31 kcal/mol.

With GGTAGCACGTGTATGG as the sequence, how does the “relative binding free energy” value read?
The value was 0.07 kcal/mol.

For GTTTTCACGTGTGTGG, which “relative binding free energy” value is on record?
Its value is 0.42 kcal/mol.

With AAATTCACGTGGGGCG as the sequence, how does the “relative binding free energy” value read?
The value was 0.09 kcal/mol.

With ATATTCACGTGATTTT as the sequence, how does the “relative binding free energy” value read?
Its value is 0.2 kcal/mol.

GGCTTCACGTGGGGGT was tested. Which “relative binding free energy” value did it give?
Its value is 0.22 kcal/mol.

Which “relative binding free energy” value does the source give for TTATTCACGTGGTCCT here?
Its value is 0.22 kcal/mol.

AGGGTCACGTGAGATC was tested. Which “relative binding free energy” value did it give?
The value was 0.49 kcal/mol.

Which “relative binding free energy” value does the source give for AGTGTCACGTGGCATC here?
Its value is 0.12 kcal/mol.

For ATTCTCACGTGCGGTT, which “relative binding free energy” value is on record?
Its value is 0.26 kcal/mol.

Which “relative binding free energy” value does the source give for GATTACACGTGGCGGG here?
The value was -0.04 kcal/mol.

How did the “relative binding free energy” value turn out when TGGGTCACGTGTCGAC was run?
Its value is 0.31 kcal/mol.

For AATATCACGTGGAAGT, which “relative binding free energy” value is on record?
The value was 0.11 kcal/mol.

Which “relative binding free energy” value does the source give for AGAGTCACGTGTGTTG here?
Its value is 0.09 kcal/mol.

Which “relative binding free energy” value does the source give for GGATACACGTGTGGTG here?
Its value is 0.03 kcal/mol.

AGGAGCACGTGTAGAT was tested. Which “relative binding free energy” value did it give?
Its value is 0.21 kcal/mol.

AGGTACACGTGTTGTT was tested. Which “relative binding free energy” value did it give?
The value was 0.21 kcal/mol.

TCAAGCACGTGTGTGT was tested. Which “relative binding free energy” value did it give?
The value was 0.01 kcal/mol.

How did the “relative binding free energy” value turn out when GGGGTCACGTGTAGTT was run?
The value was 0.24 kcal/mol.

How did the “relative binding free energy” value turn out when TACTTCACGTGGGTTT was run?
Its value is 0.19 kcal/mol.

For GTTGACACGTGGGTGC, which “relative binding free energy” value is on record?
The value was -0.25 kcal/mol.

GGAAGCACGTGGTGGC was tested. Which “relative binding free energy” value did it give?
The value was -0.15 kcal/mol.

Which “relative binding free energy” value does the source give for AGGGTCACGTGGCAAG here?
Its value is 0.08 kcal/mol.

How did the “relative binding free energy” value turn out when TTATACACGTGAGAGT was run?
The value was 0.24 kcal/mol.

How did the “relative binding free energy” value turn out when GGAGGCACGTGGACAG was run?
The value was -0.06 kcal/mol.

With AGTCGCACGTGTTTTT as the sequence, how does the “relative binding free energy” value read?
The value was 0.03 kcal/mol.

AAGTCCACGTGGTGGT was tested. Which “relative binding free energy” value did it give?
The value was -0.03 kcal/mol.
